Reference: the supplement of paper PMC9446081
Out of some 39,000 compounds screened, about 220 (0.56%) showed activity. The list shows a part of the results.

These compounds were tested on Escherichia coli K-12 BW25113 (assay: relative growth (OD600 normalised to plate interquartile mean) (fraction); higher = less growth inhibition, active = 0.2 or less). Conditions: 50 µM; LB; incubation time: overnight (16-24 h).
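Also: static incubation at 37 °C against the wild-type strain, values averaged over two biological replicates.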

SMILES	relative growth
C[C@@H]1CN([C@H](C)CO)C(=O)c2cc(NC(=O)Nc3ccc4c(c3)OCO4)ccc2O[C@H]1CN(C)Cc1ccc(C(F)(F)F)cc1	inactive: 0.98
C[C@@H]1CN([C@@H](C)CO)C(=O)c2cc(NC(=O)c3ccncc3)ccc2O[C@@H](C)CCCCO[C@@H]1CN(C)S(C)(=O)=O	inactive: 0.996
Nc1nc(/C(=C/CC(=O)O)C(=O)N[C@@H]2C(=O)N3C(C(=O)O)=CCS[C@H]23)cs1	inactive: 1.01
C=CCOC(=O)[C@H]1[C@@H]2C(=O)O[C@@H](c3ccccc3)[C@@H](c3ccccc3)N2[C@@H](c2ccc(OCCOC(=O)[C@H]3C[C@H]4C(=O)N5CCC[C@H]5C(=O)N4[C@H]3c3ccc(O)cc3)cc2)[C@]12C(=O)Nc1ccccc12	inactive: 1.07
Cc1ccc(S(=O)(=O)N(C)C[C@@H]2Oc3cc(C#Cc4ccncc4)ccc3S(=O)(=O)N([C@@H](C)CO)C[C@H]2C)cc1	inactive: 1.02
C[C@@H]1CN([C@@H](C)CO)S(=O)(=O)c2ccc(C#Cc3ccccc3)cc2O[C@@H]1CN(C)S(C)(=O)=O	inactive: 1.05
COc1ccc(NC(=O)Nc2ccc3c(c2)C(=O)N([C@H](C)CO)C[C@@H](C)[C@H](CN(C)Cc2ccc(C(F)(F)F)cc2)O3)cc1	inactive: 0.976
COc1cnc(SC)n(C)c1=O	inactive: 0.913
CO[C@H]1CN(C)C(=O)c2ccc(NC(=O)Nc3cccc(Cl)c3)cc2OC[C@H](C)N(C(=O)Nc2c(C)noc2C)C[C@@H]1C	inactive: 0.988
CN1C(=O)c2cc(NC(=O)C3CCOCC3)ccc2OC[C@H]2O[C@H](CC(=O)NCc3ccc4c(c3)OCO4)CC[C@@H]21	inactive: 0.981
CC(=O)OC1CCC2(C)C(CCC3(C)C2C2OC2C24OC(=O)C5(CCC(C)C(C)C52)CCC34C)C1(C)C (stereo not drawn)	inactive: 0.925
C[C@@H]1CN([C@@H](C)CO)C(=O)c2cc(Br)cnc2O[C@@H]1CN(C)C(=O)CN1CCOCC1	inactive: 1.03
Cc1noc(C)c1S(=O)(=O)N(C)C[C@H]1Oc2ccc(NS(=O)(=O)c3ccc(Cl)cc3)cc2CC(=O)N([C@H](C)CO)C[C@H]1C	inactive: 0.996
C[C@@H]1CN([C@@H](C)CO)C(=O)c2cc(NC(=O)CCCN(C)C)ccc2O[C@H]1CN(C)S(=O)(=O)c1ccccc1	inactive: 1
CCOP(=O)(CC(=O)O[C@H]1[C@@H]2OC(=O)[C@@H](Cc3ccc4ccccc4c3)C/C=C\C[C@H](Cc3ccc4ccccc4c3)C(=O)O[C@H]2[C@@H](OC)O[C@@H]1COC(=O)NCCCCCC(=O)NO)OCC	inactive: 0.881
C[C@@H]1CN([C@@H](C)CO)C(=O)c2cc(NC(=O)Nc3ccc(C(F)(F)F)cc3)ccc2O[C@@H](C)CCCCO[C@@H]1CN(C)Cc1ccncc1	inactive: 1.01
COc1ccc(CN(C)C[C@@H]2OCCCC[C@H](C)Oc3ccc(NC(=O)Nc4ccc(OC)cc4)cc3C(=O)N([C@H](C)CO)C[C@@H]2C)cc1	inactive: 1.03
COc1ccc(S(=O)(=O)Nc2ccc3c(c2)C(=O)N([C@H](C)CO)C[C@H](C)[C@H](CN(C)Cc2ccc(C(F)(F)F)cc2)OCCCC[C@H](C)O3)cc1	inactive: 1.01
C[C@@H]1CCCCO[C@@H](CN(C)C(=O)NC2CCCCC2)[C@H](C)CN([C@H](C)CO)C(=O)c2cc(NS(=O)(=O)c3ccc(Cl)cc3)ccc2O1	inactive: 1.03
CNC[C@@H]1OCCCC[C@H](C)Oc2ccc(NC(=O)Nc3ccc(C(F)(F)F)cc3)cc2C(=O)N([C@@H](C)CO)C[C@@H]1C	inactive: 0.943

SMILES	relative growth
Cc1noc(C)c1NC(=O)Nc1ccc2c(c1)C(=O)N([C@H](C)CO)C[C@H](C)[C@@H](CN(C)Cc1ccc(Cl)c(Cl)c1)OCCCC[C@H](C)O2	inactive: 0.986
N[C@@H](C(=O)O)c1ccc(O)cc1	inactive: 0.94
CC(C)NC(=O)N(C)C[C@H]1Oc2ccc(NC(=O)Cn3cnnn3)cc2CC(=O)N([C@@H](C)CO)C[C@H]1C	inactive: 0.995
C[C@@H]1CN([C@H](C)CO)C(=O)c2cc(/C=C/c3ccccc3)cnc2O[C@H]1CN(C)C(=O)Nc1ccc(C(F)(F)F)cc1	inactive: 0.999
O=C(CCNCCO)c1ccccc1	inactive: 0.952
COc1ccc(CN(C)C[C@H]2OCCCC[C@@H](C)Oc3ccc(NC(=O)Cc4ccccc4)cc3C(=O)N([C@H](C)CO)C[C@@H]2C)cc1	inactive: 0.995
Cc1ccc(NC(=O)n2c3ccccc3c3ccccc32)cc1	inactive: 0.991
C[C@@H]1CN([C@H](C)CO)S(=O)(=O)c2ccc(C#C[C@@H](C)O)cc2O[C@@H]1CN(C)C(=O)Cc1ccccn1	inactive: 1.03
C[C@@H](O)[C@@H](O)[C@@H](O)C/C=N/NC(=O)c1ccc(C(=O)NO)cc1	inactive: 1.01
C[C@@H]1CCCCO[C@@H](CN(C)C(=O)Nc2ccc3c(c2)OCO3)[C@H](C)CN([C@H](C)CO)C(=O)c2cc(NC(=O)C3CCCCC3)ccc2O1	inactive: 1.02
O=C(NC1CCCCC1)N(CCCl)[NH2+][O-]	inactive: 0.998
C[C@H](CO)N1C[C@H](C)[C@H](CN(C)C(=O)NC2CCCCC2)Oc2ccc(NC(=O)Nc3cccc4ccccc34)cc2CC1=O	inactive: 0.998
[N-]=[N+]=Nc1ccccc1C[C@]1(C(=O)N2CCCCC2)N=C(c2ccc(OCCCO)cc2)O[C@H]1c1ccccc1	inactive: 0.997
CC(C)NC(=O)N(C)C[C@@H]1Oc2ccc(NC(=O)NC3CCCCC3)cc2C(=O)N([C@H](C)CO)C[C@@H]1C	inactive: 1.01
CN1CCN(C(=O)C[C@H]2CC[C@H](NC(=O)c3ccc4c(c3)OCO4)[C@@H](CO)O2)CC1	inactive: 0.989
COc1ccc2c3c([nH]c2c1)[C@@H](CO)N(C[C@]13CCN(CC1)C(=O)Nc1cccc(c1)F)C(=O)c1ccc(cc1)F	inactive: 1.03
O=C(C[C@@H]1CC[C@@H]2[C@H](COC[C@H](O)CN2S(=O)(=O)c2ccc(Oc3ccccc3)cc2)O1)NCCN1CCCCC1	inactive: 0.983
C[C@H]1CCCCO[C@H](CN(C)S(=O)(=O)c2cccs2)[C@@H](C)CN([C@@H](C)CO)C(=O)c2cc(NC(=O)Cc3ccccc3)ccc2O1	inactive: 0.985
C[C@@H]1CCCCO[C@@H](CN(C)S(=O)(=O)c2cn(C)cn2)[C@H](C)CN([C@@H](C)CO)C(=O)c2cc(NS(=O)(=O)c3ccccc3)ccc2O1	inactive: 0.991
O=C(C[C@@H]1C[C@H]2c3cc(NC(=O)c4ccc5c(c4)OCO5)ccc3O[C@H]2[C@@H](CO)O1)NCc1ccccn1	inactive: 1

SMILES	relative growth
C[C@@H]1CN([C@@H](C)CO)C(=O)c2c(c3ccccc3n2C)-c2ccccc2CO[C@H]1CN(C)C(=O)NC1CCCCC1	inactive: 1.01
C[C@@H]1CN([C@H](C)CO)C(=O)c2cc(NS(=O)(=O)c3ccc(F)cc3)ccc2O[C@@H](C)CCCCO[C@H]1CN(C)C(=O)Nc1ccccc1	inactive: 0.969
C[C@@H]1CN([C@@H](C)CO)C(=O)c2cc(NC(=O)Nc3ccccc3)ccc2O[C@@H](C)CCCCO[C@H]1CN(C)Cc1ccc(C(F)(F)F)cc1	inactive: 0.998
COc1ccc(CN(C)C[C@H]2Oc3ccc(NS(=O)(=O)c4cn(C)cn4)cc3C(=O)N([C@H](C)CO)C[C@H]2C)cc1	inactive: 1
CCS(=O)(=O)N1C[C@]2(CCN(CC2)Cc2cccc(c2)OC)c2c([nH]c3cc(ccc23)OC)[C@H]1CO	inactive: 0.988
C[C@H]1CN([C@@H](C)CO)C(=O)CCCn2cc(nn2)CO[C@@H]1CN(C)S(C)(=O)=O	inactive: 1.02
COc1cccc(-c2ccc3c(c2)O[C@H](CN(C)C(=O)C2CC2)[C@@H](C)CN([C@H](C)CO)S3(=O)=O)c1	inactive: 1.02
COc1ccc(COC[C@]23N=C4SCCCN4[C@H](c4ccccc4O2)[C@H]3CO[Si](C)(C)C(C)(C)C)cc1	inactive: 0.749
COc1ccc(S(=O)(=O)Nc2ccc3c(c2)C(=O)N([C@H](C)CO)C[C@@H](C)[C@@H](CN(C)Cc2ccc(-c4ccccc4)cc2)O3)cc1	inactive: 1.03
Cc1noc(C)c1NC(=O)N(C)C[C@@H]1Oc2cc(C#CCN(C)C)ccc2S(=O)(=O)N([C@@H](C)CO)C[C@H]1C	inactive: 1
Nc1ncn([C@@H]2O[C@H](CO)[C@@H](O)[C@H]2O)c(=O)n1	inactive: 0.458
CO[C@@H]1CN(C)C(=O)c2cc(NS(=O)(=O)CC(F)(F)F)ccc2OC[C@H](C)N(C(=O)NC(C)C)C[C@@H]1C	inactive: 0.971
CNC[C@@H]1OCCCC[C@@H](C)Oc2ccc(NS(=O)(=O)c3cn(C)cn3)cc2C(=O)N([C@@H](C)CO)C[C@@H]1C	inactive: 0.999
COc1ccc(CN(C)C[C@H]2OCCCC[C@H](C)Oc3ccc(NS(=O)(=O)c4ccccc4)cc3C(=O)N([C@@H](C)CO)C[C@@H]2C)cc1	inactive: 1
COc1ccc(NC(=O)N(C)C[C@H]2OCCCC[C@@H](C)Oc3ccc(NS(=O)(=O)c4ccc(F)cc4)cc3C(=O)N([C@@H](C)CO)C[C@@H]2C)cc1	inactive: 0.985
C[C@H]1CN([C@@H](C)CO)C(=O)c2cc(NS(=O)(=O)c3cccs3)ccc2O[C@H]1CN(C)S(C)(=O)=O	inactive: 0.971
NC(=O)C(C(N)=O)[C@H]1CCS(=O)(=O)C1	inactive: 1.01
Cc1noc(C)c1NC(=O)Nc1ccc2c(c1)C(=O)N([C@H](C)CO)C[C@H](C)[C@@H](CN(C)S(=O)(=O)c1ccc(F)cc1)OCCCC[C@H](C)O2	inactive: 1.01
